Results published in PubChem BioAssay AID904 (National Center for Advancing Translational Sciences (NCATS), 2007).
Screen size: about 55,000 compounds; about 530 (0.96%) were called active. Inconclusive means that the source gave no clear call. Such entries were picked first, then a sample of the others. The call rests on the fitted dose curve; in most records, active means well fitted cell-killing curve with a large enough effect; inconclusive means small, poorly fitted or top-dose-only effect; inactive means no such curve, though single readings can be large or run the other way. Potencies beside an inconclusive call are fits to weak or partial responses and may not hold up.

experiment: qHTS Screen for Compounds that Selectively Target Cancer Cells with p53 Mutations: Cytotoxicity of p53 Null Cells at the Nonpermissive Temperature; settings: H1299 p53-null (neo) cells, 39C, ATPlite viability, 24 h; series mostly up to 46.1 µM; further: nearly all actives have a fitted effect of over 50% in size
Procedure, shortened: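 Following overnight plating at 37C (600 cells/well), H1299-neo or H1299-p53A138V cells are dosed up to 46 uM. Incubation lasts 24 hr at 39C before ATP detection.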
Potency means the concentration at half of the fitted maximal effect; tags describe the fitted curve by direction and shape.

Structure (SMILES) | Potency
Clc1cccc(N2CCN(c3ncnc4c3nc3n4CCCCC3)CC2)c1 | inconclusive: 15.8 µM [cytotoxic, partial curve]
CCc1ccc(NC(=O)c2cc(C(C)=O)n3ccccc23)cc1 | inconclusive: 10 µM [cytotoxic, partial curve]
O=C(Nc1ccc2nc(SCC(=O)N3CCOCC3)sc2c1)c1ccc(F)cc1 | inconclusive: 31.6 µM [cytotoxic, single point]
CNC(=O)c1cc2c(n(-c3ccc(C)cc3)c1=O)CC(C)(C)CC2=O | inactive
CCOC(=O)C1CCCN(C(=O)C2CCN(c3nnc(C)c4c(C)n(-c5ccccc5)nc34)CC2)C1 (configuration not stated) | inactive
CN1c2cc(Cl)ccc2-c2nc(SCC(=O)Nc3ccc(F)cc3F)ncc2S1(=O)=O | inconclusive: 10 µM [cytotoxic, partial curve, poor fit]
O=C(CN(c1ccc(Cl)c(C(F)(F)F)c1)S(=O)(=O)c1ccccc1)N1CCc2ccccc2C1 | inconclusive: 0.0316 µM [cytotoxic, full curve, poor fit]
Cc1ccc(OCCn2c(CNc3cccc(C)c3)nc3ccccc32)cc1 | inconclusive: 35.5 µM [cytotoxic, single point]
CCn1ccc2cc(S(=O)(=O)N3CCCN(C(=O)Nc4ccccc4C(F)(F)F)CC3)ccc21 | inconclusive: 15.8 µM [cytotoxic, partial curve]
COc1ccc(-c2cc(C(F)(F)F)nc(S(=O)(=O)CCCC(=O)Nc3ccccc3C(F)(F)F)n2)cc1OC | inconclusive: 6.31 µM [cytotoxic, single point]
Cc1nn(-c2nc3ccccc3[nH]2)c(N)c1-c1ccccc1 | inconclusive: 12.6 µM [cytotoxic, single point]
Cc1ccc(C)c(N2CCN(CCCNC(=O)Cn3c(-c4cccs4)cc4ccccc43)CC2)c1 | inconclusive: 28.2 µM [cytotoxic, single point]
COc1ccc(-c2csc3ncnc(Nc4ccc(OC)c(OC)c4)c23)cc1 | inconclusive: 1.26 µM [cytotoxic, full curve, poor fit]
CCOc1ccc(CCNC(=O)c2ccc(Cn3c(=O)c4cccn4c4cccnc43)cc2)cc1 | inconclusive: 12.6 µM [cytotoxic, partial curve]
CCOc1ccc(OCC)c(NC(=O)CN(c2ccc(C)cc2)S(=O)(=O)c2c(C)n[nH]c2C)c1 | inconclusive: 12.6 µM [cytotoxic, partial curve]
O=C(CSc1nc2c(c(=O)[nH]1)CN(Cc1ccc(F)cc1)CC2)Nc1cccc(C(F)(F)F)c1 | inactive
CCOC(=O)c1ccc(N2C(=O)c3[nH]nc(-c4ccccc4)c3C2c2cccs2)cc1 (configuration not stated) | inactive
Cc1c(C(=O)OC2CCCCCC2)[nH]c2c1C(=O)CC(c1ccccc1Cl)C2 (configuration not stated) | inactive
CCN(CC)S(=O)(=O)c1ccc(C(=O)NC2CC(=O)N(c3ccc4c(c3)OCCO4)C2)cc1 (configuration not stated) | inactive
CCOc1ccc(C(=O)Nc2c(C(N)=O)oc3ccccc23)cc1 | inconclusive: 17.8 µM [cytotoxic, single point]
COc1ccc(-c2cc(NCc3ccc(C)cc3)n3cnnc3n2)cc1 | inconclusive: 20 µM [cytotoxic, single point]

Structure (SMILES) | Potency
CCCCN1C(=O)C(O)(c2c(C)[nH]c3ccccc23)c2cc(Br)ccc21 (configuration not stated) | inconclusive: 10 µM [cytotoxic, partial curve]
CCCCCCOc1ccc(-c2nc3ccc(Br)cc3c(=O)o2)cc1 | inactive
CC(C)CNC(=S)N1CCC(NC(=O)C23CC4CC(CC(C4)C2)C3)CC1 | inactive
CN1CCN(C(=O)c2cnn(-c3cccc(F)c3)c2C2CCN(C(=O)OC(C)(C)C)CC2)CC1 | inactive
O=C(Nc1ccc(NC(=O)c2ccco2)nc1)c1cccnc1 | inconclusive: 11.2 µM [cytotoxic, partial curve]
Cc1oc(-c2ccccc2Cl)nc1CSc1nncn2c1cc1occc12 | inconclusive: 25.1 µM [cytotoxic, single point]
Cc1ccc2nc(-c3c[nH]c4ccccc34)c(Nc3ccc(F)cc3)n2c1 | inconclusive: 25.1 µM [cytotoxic, partial curve]
Cc1oc2ccc(O)c(CN3CCCC(C)C3)c2c1C(=O)Nc1ccccc1 (configuration not stated) | inactive
CCc1c(C)nc2nc(-c3ccccc3)nn2c1NCc1ccc(C)cc1 | inconclusive: 25.1 µM [cytotoxic, single point]
CC(=O)Nc1ccc(NC(=O)C2Cc3ccccc3N2C(=O)c2ccccc2)cc1 (configuration not stated) | inactive
CC1=C(C(=O)OC2CCCCCC2)C(c2ccc(Cl)cc2)CC(=O)N1 (configuration not stated) | inactive
Cc1ccc(OC(=O)CSc2nnc(-c3cccs3)o2)c(C)c1 | inconclusive: 2 µM [cytotoxic, single point]
Cc1ccc(CNC(=O)C2CCCN(Cc3nc(-c4cccc(C)c4)oc3C)C2)cc1 (configuration not stated) | inconclusive: 31.6 µM [cytotoxic, single point]
Cc1cc2c(cc1S(=O)(=O)Nc1cccc(Cl)c1C)OCCN2C | inconclusive: 20 µM [cytotoxic, single point]
COc1ccc(-c2nc3ccccc3o2)cc1NC(=O)c1ccc(-c2cccc(Cl)c2C)o1 | inactive
COc1ccc(CCNC(=O)CCn2c(=O)c3ccccc3n(Cc3ccccc3C)c2=O)cc1OC | inconclusive: 31.6 µM [cytotoxic, single point]
Cc1c(CC(=O)NCc2ccccc2Cl)c(=O)oc2cc(O)ccc12 | inconclusive: 3.16 µM [cytotoxic, partial curve]
Cc1csc2nc(-c3cccc(NC(=O)c4c(F)cccc4F)c3)cn12 | inconclusive: 7.94 µM [cytotoxic, full curve]
CCOc1ccc(NC(=O)c2ccc(N)cc2)cc1 | inconclusive: 8.91 µM [cytotoxic, partial curve]
Cn1c(=O)oc2cc(S(=O)(=O)N3CCC(C(=O)N4CCN(c5cccc(Cl)c5)CC4)CC3)ccc21 | inactive
Cc1ccc(Cn2c(C)c(CNCc3ccc(OC(C)C)cc3)c(C(=O)O)c2C)cc1 | inactive
